In patent US20250257143A1 (FORTE SUBSIDIARY, published 2025):

T1: huCD122-HIS (ARCO Bio | Cat No. CD2-H5221) (human, UniProt P14784 27-239)
T1 construct: Bought analyte of the BLI assay; also called human CD122; not shown: His tag
T1 sequence (looked up): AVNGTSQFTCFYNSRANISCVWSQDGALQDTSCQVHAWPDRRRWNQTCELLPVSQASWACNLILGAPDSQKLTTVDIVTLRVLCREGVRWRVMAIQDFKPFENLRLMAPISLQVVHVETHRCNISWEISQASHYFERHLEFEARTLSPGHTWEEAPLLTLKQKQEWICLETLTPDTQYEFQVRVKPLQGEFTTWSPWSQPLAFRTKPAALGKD


Experiments:
[1] = target: T1, huCD122-HIS (ARCO Bio | Cat No. …); assay: BLI Octet, antibody captured on AHC sensor, huCD122-His analyte, 1:1 fit
Description: (§1) Based on Bio-Layer Interferometry (BLI), the Octet® BLI system is a fluidics-free instrument platform that enables real-time, label-free analysis for the determination of kinetics, affinity and antibody/protein quantitation. Binding experiments were performed on Octet HTX at 25° C. The analyte used was huCD122-HIS (ARCO Bio | Cat No. CD2-H5221) at a molecular weight of 25.4 kDa. The antibodies were loaded onto Anti-human Fc capture (AHC) sensors. The loaded sensors were dipped into serial dilutions of huCD122-His (Starting at 20 nM, 1:3 dilution, 4 points). Reference sample well (buffer) was used for data analysis. Kinetic constants were calculated using a monovalent (1:1) binding model. The assay buffer used was PBS with 0.1% BSA, […], pH 7.2. The regeneration buffer used was 10 mM Glycine buffer (pH 1.7). The four concentrations of huCD122-His used to determine anti-CD122 antibody binding and dissociation properties were 0.0 nM, 2.2 nM, 6.7 nM, and 20 nM. Sensorgram plots to display antibody binding characteristics were generated. The mouse parental chimera configurations in both IgG1 and IgG4 backbones (M5 IgG1 parental and M5 IgG4 parental) were tested as well as each combination of the humanized 3 HC and 3 LC variants in either an IgG1 or an IgG4 backbone.

[2] = target: T1, huCD122-HIS (ARCO Bio | Cat No. …); assay: BLI Octet, antibody captured on AHC sensor, huCD122-His analyte, 1:1 fit; second batch
Description: as §1

Kd [1]	Response [1]	koff [1]	kon [1]	Kd [2]	Response [2]	koff [2]	kon [2]	Binder
0.754 nM	0.394	0.000395 s⁻¹	524000 M⁻¹ s⁻¹					G3 (antibody, human IgG1, kappa, Humanized, human IgG1 (G1M17), kappa) heavy: QVQLVQSGAEVKKPGASVKVSCKASGYTFTSHWISWVRQAPGQGLEWMGDIYPGSGNTNYNEKLQGRVTMTVDTSTSTAYMELRSLRSDDTAVYYCARERGGFDYWGQGTLVTVSS[here human IgG1 constant region without letters] light: DIQMTQSPSSLSASVGDRVTITCQASQDISNFLNWYQQKPGKTLKLLIYYTSGLHTGVPSRFSGSGSGTDFTFTISSLQPEDIATYYCQQDNNHPYTFGQGTKLEIKRTVAAPSVFIFPPSDEQLKSGTASVVCLLNNFYPREAKVQWKVDNALQSGNSQESVTEQDSKDSTYSLSSTLTLSKADYEKHKVYACEVTHQGLSSPVTKSFNRGEC
0.814 nM	0.373	0.000415 s⁻¹	509000 M⁻¹ s⁻¹					G6 (antibody, human IgG1, kappa, Humanized, human IgG1 (G1M17), kappa) heavy: QVQLVQSGAEVKKPGASVKVSCKASGYTFTSHWITWVRQAPGQGLEWMGDIYPGSGNTNYNEKFQGRVTLTVDTSISTAYMELSRLRSDDTVVYYCARERGGFDYWGQGTLVTVSS[here human IgG1 constant region without letters] light: DIQMTQSPSSLSASVGDRVTITCQASQDISNFLNWYQQKPGKTLKLLIYYTSGLHTGVPSRFSGSGSGTDFTFTISSLQPEDIATYYCQQDNNHPYTFGQGTKLEIKRTVAAPSVFIFPPSDEQLKSGTASVVCLLNNFYPREAKVQWKVDNALQSGNSQESVTEQDSKDSTYSLSSTLTLSKADYEKHKVYACEVTHQGLSSPVTKSFNRGEC
2.18 nM	0.305	0.000922 s⁻¹	424000 M⁻¹ s⁻¹					G17 (antibody, human IgG4 S228P, kappa, Humanized, human IgG4 (S228P), kappa) heavy: QVQLVQSGAEVKKPGASVKVSCKASGYTFTSHWITWVRQAPGQGLEWMGDIYPGSGNTNYNEKFQGRVTLTVDTSISTAYMELSRLRSDDTVVYYCARERGGFDYWGQGTLVTVSSASTKGPSVFPLAPCSRSTSESTAALGCLVKDYFPEPVTVSWNSGALTSGVHTFPAVLQSSGLYSLSSVVTVPSSSLGTKTYTCNVDHKPSNTKVDKRV[here human IgG4 Fc with S228P (EU numbers) without letters] light: DIQMTQSPSSLSASVGDRVTITCRASQDISNFLNWYQQKPGKAPKLLIYYTSGLHSGVPSRFSGSGSGTDFTLTISSLQPEDFATYYCQQDNNHPYTFGQGTKLEIKRTVAAPSVFIFPPSDEQLKSGTASVVCLLNNFYPREAKVQWKVDNALQSGNSQESVTEQDSKDSTYSLSSTLTLSKADYEKHKVYACEVTHQGLSSPVTKSFNRGEC
1.67 nM	0.363	0.000801 s⁻¹	479000 M⁻¹ s⁻¹					G4 (antibody, human IgG1, kappa, Humanized, human IgG1 (G1M17), kappa) heavy: QVQLVQSGAEVKKPGASVKVSCKASGYTFTSHWISWVRQAPGQGLEWMGDIYPGSGNTNYNEKLQGRVTMTVDTSTSTAYMELRSLRSDDTAVYYCARERGGFDYWGQGTLVTVSS[here human IgG1 constant region without letters] light: DIQMTQSPSSLSASVGDRVTITCRASQDISNFLNWYQQKPGKAPKLLIYYTSGLHSGVPSRFSGSGSGTDFTLTISSLQPEDFATYYCQQDNNHPYTFGQGTKLEIKRTVAAPSVFIFPPSDEQLKSGTASVVCLLNNFYPREAKVQWKVDNALQSGNSQESVTEQDSKDSTYSLSSTLTLSKADYEKHKVYACEVTHQGLSSPVTKSFNRGEC
1.03 nM	0.342	0.000478 s⁻¹	466000 M⁻¹ s⁻¹	1.18 nM	0.251	0.00064 s⁻¹	541000 M⁻¹ s⁻¹	G16 (antibody, human IgG4 S228P, kappa, Humanized, human IgG4 (S228P), kappa) heavy: QVQLVQSGAEVKKPGASVKVSCKASGYTFTSHWITWVRQAPGQGLEWMGDIYPGSGNTNYNEKFQGRVTLTVDTSISTAYMELSRLRSDDTVVYYCARERGGFDYWGQGTLVTVSSASTKGPSVFPLAPCSRSTSESTAALGCLVKDYFPEPVTVSWNSGALTSGVHTFPAVLQSSGLYSLSSVVTVPSSSLGTKTYTCNVDHKPSNTKVDKRV[here human IgG4 Fc with S228P (EU numbers) without letters] light: DIQMTQSPSSLSASVGDRVTITCQASQDISNFLNWYQQKPGKTLKLLIYYTSGLHTGVPSRFSGSGSGTDFTFTISSLQPEDIATYYCQQDNNHPYTFGQGTKLEIKRTVAAPSVFIFPPSDEQLKSGTASVVCLLNNFYPREAKVQWKVDNALQSGNSQESVTEQDSKDSTYSLSSTLTLSKADYEKHKVYACEVTHQGLSSPVTKSFNRGEC
1.78 nM	0.364	0.000928 s⁻¹	521000 M⁻¹ s⁻¹					G7 (antibody, human IgG1, kappa, Humanized, human IgG1 (G1M17), kappa) heavy: QVQLVQSGAEVKKPGASVKVSCKASGYTFTSHWITWVRQAPGQGLEWMGDIYPGSGNTNYNEKFQGRVTLTVDTSISTAYMELSRLRSDDTVVYYCARERGGFDYWGQGTLVTVSS[here human IgG1 constant region without letters] light: DIQMTQSPSSLSASVGDRVTITCRASQDISNFLNWYQQKPGKAPKLLIYYTSGLHSGVPSRFSGSGSGTDFTLTISSLQPEDFATYYCQQDNNHPYTFGQGTKLEIKRTVAAPSVFIFPPSDEQLKSGTASVVCLLNNFYPREAKVQWKVDNALQSGNSQESVTEQDSKDSTYSLSSTLTLSKADYEKHKVYACEVTHQGLSSPVTKSFNRGEC
1.12 nM	0.318	0.000466 s⁻¹	415000 M⁻¹ s⁻¹					G20 (antibody, human IgG4 S228P, kappa, Humanized, human IgG4 (S228P), kappa) heavy: QVQLVQSGAEVKKPGASVKVSCKASGYTFTSHWITWVRQAPGQRLEWMGDIYPGSGNTNYNEKFQGRVTITVDTSASTAYMELSSLRSEDTAVYYCARERGGFDYWGQGTLVTVSSASTKGPSVFPLAPCSRSTSESTAALGCLVKDYFPEPVTVSWNSGALTSGVHTFPAVLQSSGLYSLSSVVTVPSSSLGTKTYTCNVDHKPSNTKVDKRV[here human IgG4 Fc with S228P (EU numbers) without letters] light: DIQMTQSPSSLSASVGDRVTITCRASQDISNFLNWYQQKPGKAPKLLIYYTSGLHSGVPSRFSGSGSGTDFTLTISSLQPEDFATYYCQQDNNHPYTFGQGTKLEIKRTVAAPSVFIFPPSDEQLKSGTASVVCLLNNFYPREAKVQWKVDNALQSGNSQESVTEQDSKDSTYSLSSTLTLSKADYEKHKVYACEVTHQGLSSPVTKSFNRGEC
				0.869 nM	0.36	0.000415 s⁻¹	478000 M⁻¹ s⁻¹	G9 (antibody, human IgG1, kappa, Humanized, human IgG1 (G1M17), kappa; Only the second batch was measured) heavy: QVQLVQSGAEVKKPGASVKVSCKASGYTFTSHWITWVRQAPGQRLEWMGDIYPGSGNTNYNEKFQGRVTITVDTSASTAYMELSSLRSEDTAVYYCARERGGFDYWGQGTLVTVSS[here human IgG1 constant region without letters] light: DIQMTQSPSSLSASVGDRVTITCQASQDISNFLNWYQQKPGKTLKLLIYYTSGLHTGVPSRFSGSGSGTDFTFTISSLQPEDIATYYCQQDNNHPYTFGQGTKLEIKRTVAAPSVFIFPPSDEQLKSGTASVVCLLNNFYPREAKVQWKVDNALQSGNSQESVTEQDSKDSTYSLSSTLTLSKADYEKHKVYACEVTHQGLSSPVTKSFNRGEC
0.698 nM	0.337	0.000322 s⁻¹	462000 M⁻¹ s⁻¹	0.915 nM	0.335	0.000489 s⁻¹	534000 M⁻¹ s⁻¹	G19 (antibody, human IgG4 S228P, kappa, Humanized, human IgG4 (S228P), kappa) heavy: QVQLVQSGAEVKKPGASVKVSCKASGYTFTSHWITWVRQAPGQRLEWMGDIYPGSGNTNYNEKFQGRVTITVDTSASTAYMELSSLRSEDTAVYYCARERGGFDYWGQGTLVTVSSASTKGPSVFPLAPCSRSTSESTAALGCLVKDYFPEPVTVSWNSGALTSGVHTFPAVLQSSGLYSLSSVVTVPSSSLGTKTYTCNVDHKPSNTKVDKRV[here human IgG4 Fc with S228P (EU numbers) without letters] light: DIQMTQSPSSLSASVGDRVTITCQASQDISNFLNWYQQKPGKTLKLLIYYTSGLHTGVPSRFSGSGSGTDFTFTISSLQPEDIATYYCQQDNNHPYTFGQGTKLEIKRTVAAPSVFIFPPSDEQLKSGTASVVCLLNNFYPREAKVQWKVDNALQSGNSQESVTEQDSKDSTYSLSSTLTLSKADYEKHKVYACEVTHQGLSSPVTKSFNRGEC
1.75 nM	0.355	0.000697 s⁻¹	398000 M⁻¹ s⁻¹	2.57 nM	0.301	0.00107 s⁻¹	415000 M⁻¹ s⁻¹	G14 (antibody, human IgG4 S228P, kappa, Humanized, human IgG4 (S228P), kappa) heavy: QVQLVQSGAEVKKPGASVKVSCKASGYTFTSHWISWVRQAPGQGLEWMGDIYPGSGNTNYNEKLQGRVTMTVDTSTSTAYMELRSLRSDDTAVYYCARERGGFDYWGQGTLVTVSSASTKGPSVFPLAPCSRSTSESTAALGCLVKDYFPEPVTVSWNSGALTSGVHTFPAVLQSSGLYSLSSVVTVPSSSLGTKTYTCNVDHKPSNTKVDKRV[here human IgG4 Fc with S228P (EU numbers) without letters] light: DIQMTQSPSSLSASVGDRVTITCRASQDISNFLNWYQQKPGKAPKLLIYYTSGLHSGVPSRFSGSGSGTDFTLTISSLQPEDFATYYCQQDNNHPYTFGQGTKLEIKRTVAAPSVFIFPPSDEQLKSGTASVVCLLNNFYPREAKVQWKVDNALQSGNSQESVTEQDSKDSTYSLSSTLTLSKADYEKHKVYACEVTHQGLSSPVTKSFNRGEC
